Measurements taken from paper PMC4336329 (PLoS ONE, 2015).
Out of some 310,000 compounds screened, about 2,200 (0.71%) showed an effect of 50% or more. Effects have a minus sign here. This is one part of the list.

Target: human ether-à-go-go-related gene (hERG) potassium channel (human, UniProt Q12809)
Test: primary screen, population patch clamp on CHO cells stably expressing hERG

human ether-à-go-go-related gene (hERG) potassium channel, sequence (Q12809 whole entry, looked up): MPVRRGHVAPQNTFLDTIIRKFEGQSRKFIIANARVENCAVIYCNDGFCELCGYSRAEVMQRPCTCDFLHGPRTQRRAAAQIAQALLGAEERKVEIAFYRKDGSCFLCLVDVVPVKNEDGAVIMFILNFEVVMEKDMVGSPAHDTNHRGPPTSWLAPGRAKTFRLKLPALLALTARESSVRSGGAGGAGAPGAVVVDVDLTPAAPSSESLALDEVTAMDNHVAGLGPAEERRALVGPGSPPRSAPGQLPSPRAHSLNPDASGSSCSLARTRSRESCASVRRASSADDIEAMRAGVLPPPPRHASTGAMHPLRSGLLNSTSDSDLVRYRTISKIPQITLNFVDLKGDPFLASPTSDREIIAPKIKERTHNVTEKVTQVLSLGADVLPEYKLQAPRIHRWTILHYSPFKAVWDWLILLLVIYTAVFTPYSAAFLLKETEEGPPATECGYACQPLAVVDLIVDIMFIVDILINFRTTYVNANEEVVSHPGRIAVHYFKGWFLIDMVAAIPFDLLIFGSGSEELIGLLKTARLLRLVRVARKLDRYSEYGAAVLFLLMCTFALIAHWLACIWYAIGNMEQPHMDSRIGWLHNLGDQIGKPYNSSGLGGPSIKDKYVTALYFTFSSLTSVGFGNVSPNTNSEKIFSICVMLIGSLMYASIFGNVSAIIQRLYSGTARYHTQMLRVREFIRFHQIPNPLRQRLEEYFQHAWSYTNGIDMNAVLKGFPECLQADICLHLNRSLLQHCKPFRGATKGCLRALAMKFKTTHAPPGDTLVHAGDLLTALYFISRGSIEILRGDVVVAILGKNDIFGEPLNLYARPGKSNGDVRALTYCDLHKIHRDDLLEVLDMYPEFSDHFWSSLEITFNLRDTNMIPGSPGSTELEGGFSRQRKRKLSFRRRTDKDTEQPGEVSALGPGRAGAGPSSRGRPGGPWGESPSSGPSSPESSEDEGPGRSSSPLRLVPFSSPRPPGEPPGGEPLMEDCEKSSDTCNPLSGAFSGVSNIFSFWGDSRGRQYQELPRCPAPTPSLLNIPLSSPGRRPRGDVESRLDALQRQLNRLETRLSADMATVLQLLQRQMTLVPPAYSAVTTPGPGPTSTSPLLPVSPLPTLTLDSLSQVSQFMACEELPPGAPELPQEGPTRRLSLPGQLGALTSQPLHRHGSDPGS

Compound	hERG current change (%, negative = inhibition) at 1uM [%]
O=C1OCCC1Sc1nnc(-c2ccc(Cl)cc2Cl)o1 (stereo not drawn)	4.66
O=C(Nc1ccccc1C(=O)O)c1cc(S(=O)(=O)N2CCCCC2)cs1	12.6
CCOc1ccc(NS(=O)(=O)c2cc(C(=O)NCC3CCCO3)ccc2Cl)cc1 (stereo not drawn)	21.8
COC(=O)c1c(NC(=O)Cc2cccs2)sc2c1CCC(C)C2 (stereo not drawn)	2.54
OC1(c2cccc(C(F)(F)F)c2)CCN(Cc2nnnn2Cc2ccccc2)CC1	9.44
O=C(Nc1cc2cccc([N+](=O)[O-])c2oc1=O)c1cccs1	12.9
C/C=C(\C)C(=O)Nc1cccc(C2=NOC3(C2)C[C@H](C(N)=O)N(C(=O)C(c2ccccc2)c2ccccc2)C3)c1 (stereo partly drawn)	13.3
CSc1nnc(CCNS(=O)(=O)c2ccccc2Br)n1C	15.3
COc1ccc(C(C(=O)NCC2CCCO2)N(C(=O)c2snc(C(N)=O)c2N)c2ccccc2C)cc1OC (stereo not drawn)	0.284
CC1(C)Cc2cccc(OCC(=O)Nc3ccc(S(N)(=O)=O)cc3)c2O1	5.94
O=C(CNC1CCCCCC1)Nc1ccc(S(=O)(=O)NC2CC2)cc1	10.3
CCCCCCNC(=O)CC(NS(=O)(=O)c1ccc(NC(C)=O)cc1)C(C)C (stereo not drawn)	-0.978
O=S(=O)(Nc1nc2ccccc2nc1Nc1cccc(S(=O)(=O)N2CCCCC2)c1)c1ccccc1	3.86
COc1ccc(/C=C(\C#N)C(=O)Nc2cccc3ncccc23)cc1OC.Cl	3.7
Cc1ccccc1C1C(C#N)=C(N)N(N(C)C)C2=C1C(=O)CC(C)(C)C2 (stereo not drawn)	-1.65
CCOC(=O)c1c(NC(=S)Nc2ccccc2)sc(C)c1C	4.82
Cc1nn(Cc2c(F)c(F)c(F)c(F)c2F)c(C)c1NC(=O)c1ccc(COc2cc(Cl)ccc2Cl)cc1	3.37
Fc1ccc(NC(=S)N2CCCC2)cc1Cl	12.9
CC(C)(C)NC(=O)COc1coc(CN2CCN(Cc3ccccc3)CC2)cc1=O	3.39
COc1cc(C(=O)Nc2cc(C)c(OCC(=O)N3CCOCC3)c(C)c2)cc(OC)c1OC	10.5
COc1ccc(CCNS(=O)(=O)c2cc3c4c(c2)C(C)C(=O)N4CCC3)cc1OC (stereo not drawn)	18.7
CCCCOC(=O)C1=C(C)Nc2ncnn2C1c1ccc(OC)c(OC)c1OC (stereo not drawn)	-8.06
Cc1onc(-c2ccccc2)c1CNS(=O)(=O)c1cccc(Cl)c1	7.23
CCOC(=O)C1CCN(C(=O)c2cc(S(=O)(=O)N(C)C)ccc2N2CCCC2)CC1	-7.41
C1CC(CN2CCOCC2)CN(c2nc3nonc3nc2N2CCSCC2)C1 (stereo not drawn)	17.4
CCN(CC)c1cc(C)c2cc(NC(=O)CNC(C)=O)ccc2n1	3.2
C/C(CC(=O)NC1CCCCC1)=N\NC(=O)c1ccc(Br)cc1	8.83

Compound	hERG current change (%, negative = inhibition) at 1uM [%]
CSc1ccc(/C=N/NC(=O)c2sccc2C)cc1	12.6
CCCSc1ncc(Cl)c(C(=O)Nc2ccc(S(=O)(=O)N3CC(C)OC(C)C3)cc2)n1 (stereo not drawn)	-7.58
CC(C)CCNC(=O)C1CCC(=O)N1CCc1ccccc1 (stereo not drawn)	12.2
O=C(NCCc1ccccc1)C1CCN(S(=O)(=O)c2cccs2)CC1	1.8
CCN(CC(=O)Nc1c(F)cccc1F)C(=O)c1ccc(C#N)cc1	8.99
O=C(NCCNC(=O)c1ccc(Cl)cc1Cl)c1cnccn1	6.54
COc1ccccc1-c1ccc(SCc2ccc(C)cc2)nn1	9.22
Cc1noc(C)c1C(=O)NNc1cc(Cl)ccc1Cl	14.6
CC1CCCC(NC(=O)COC(=O)c2ccccc2NC(=O)c2ccco2)C1C (stereo not drawn)	7.45
CC(Sc1nnc(-c2cccnc2)n1N)C(=O)N1CCOCC1 (stereo not drawn)	-2.12
Nc1cc(N)nc(SCCN2CCCCC2)n1	6.82
COc1ccccc1C(C)Nc1nc(-c2cccnc2)nc2ccccc12 (stereo not drawn)	12.2
COC(=O)c1sc(N)c(C(=O)OC)c1CSc1nnc(-c2ccccc2Cl)n1C	7.57
CCOC(=O)c1c(NC(=O)C[n+]2ccc(Cc3ccccc3)cc2)sc(C)c1C.[Cl-]	6.34
Cc1cccc(NC(=O)c2nnn(-c3cccc(C(F)(F)F)c3)c2N)c1	-0.184
O=c1[nH]c2ccccc2nc1C(Cl)c1ccccc1 (stereo not drawn)	1.52
COC(=O)[C@@H]1CCCN1C(=O)CCc1nnc(C2CCCCC2)o1	10.1
Cc1ccc(NC(=S)NC(=O)c2cncc(Br)c2)cc1Cl	25.6
Cc1cc(C)nc(SCC(=O)Nn2cnnc2)n1	17.2
Cc1cc(NC(=O)C2CC(c3ccc(F)cc3)=NO2)n(-c2ccccc2)n1 (stereo not drawn)	12
C/C(CC(=O)NC1CCCC1)=N\NC(=O)c1ccc([N+](=O)[O-])c(Cl)c1	13.8
O=C(CCn1c(=O)c2sccc2n(CC(=O)OCc2ccccc2)c1=O)NCc1ccco1	-11.6
CCCCNC(=O)c1c[nH]c2ccc(S(=O)(=O)Nc3ccc(OCC)cc3)cc2c1=O	1.53
O=C(c1ccco1)N1N=C(c2ccccc2)CC1c1ccc2nccnc2c1 (stereo not drawn)	0.01
Cc1ccc(C)n1-n1cnc2sc(-c3ccccc3)cc2c1=O	11.7
COc1ccc(C(=O)C(C)[n+]2ccc(C)c3ccccc32)cc1[N+](=O)[O-].[Br-] (stereo not drawn)	13.5
CN1CCN(c2ccccc2NC(=O)c2ccc(N3CCOCC3)c([N+](=O)[O-])c2)CC1	4.72
